The other results are listed elsewhere or left out.
B1: chr2:50987981:50987982:-_ENSMUSG00000017144_ENSMUST00000017288|mus_mus|FALSE|FALSE (ssRNA)
RNA: GGGAGUUCUACAGUCCGACGAUCGGUGGCGACGUGAAAAAUGUCUCUGACGCUGUUUUCUGACUGUAAAGCUGAGCAUUCUAUGUAAGUGGCUGCUCCGAUCUGCUUGGCCAUAUUUGCCCCCUGGUCAUAUGACACAGGAGUCAACAGAGGAUUGAGCAUCA
B2: chr5:145543945:145543946:-_ENSG00000133706_ENST00000545646|hu_hu|hu_hu_hu_mus_True|18_48 (ssRNA)
RNA: GGGAGUUCUACAGUCCGACGAUCCUGAACGGCCAGUGGUGGGAAAUAAUCAAGCCAGUGCUCUGCUUCAGAAAACUUCACUAUGUCUUCAUCAGACAGCCCAAGGGAUUUCAUAAUGCCCCACUGGUACUUAGAAGAUCCUGCCAACAGAGGAUUGAGCAUCA
B3: chr8:97153689:97153690:+_ENSMUSG00000050079_ENSMUST00000060389|mus_mus|FALSE|FALSE (ssRNA)
RNA: GGGAGUUCUACAGUCCGACGAUCGUCUAGUAACAAGGUUAUAACAGCUGGUCCCAAUGGAUCUUCCAAUGGAAUAACUCUAAUUAAAGACUGGACAACAUCCAACCAUCCUUCAUCUGUUUCUGCCAUUUCAUGUAAUGUAAUCAACAGAGGAUUGAGCAUCA
B4: chr19:54062153:54062154:+_ENSMUSG00000024976_ENSMUST00000025932|mus_hu|motif|central (ssRNA)
RNA: GGGAGUUCUACAGUCCGACGAUCUUGGCUGAUGGUACUUUGGGAUCUUUUUCUUUAGAGUCUUUUUCUUUUCCUAAACGGCGGCUCAUGGUGACUCAAGCCUGGACAAAAACUACAUGAACUCCUUUUAUUUUCCAGUAAUUGCAACAGAGGAUUGAGCAUCA
B5: chr3:33650081:33650082:-_ENSG00000163539_ENST00000461133|hu_mus|motif|central (ssRNA)
RNA: GGGAGUUCUACAGUCCGACGAUCCAAAACAGCUGCAUGUCUUUCCAGUGAAUGAGUCUGCCAUUCUUGCAGCAGCAAAUCGGAAAAUUCAAAUGAACGUCUCCUUACAGGAACUGACUUUGAUGUGCAGUUGCUUGUUAUUAACAACAGAGGAUUGAGCAUCA
B6: 167754689_167758600_1407_CDS_ENSG00000173905_ENST00000470487|human|control|control (ssRNA)
RNA: GGGAGUUCUACAGUCCGACGAUCGGUCACAUUUUGCUGUUCUGCUGGAUCAGGUUUUCGAAGGCUUGGAAUCCUAUUCAGAGUAUCUUUCAGUUGUUUAUAUUCUGCAACUUGAGUCUGUGCAGCAGCUAGUGCACUCUUGUGCAACAGAGGAUUGAGCAUCA
B7: chrX:140292434:140292435:-_ENSMUSG00000031285_ENSMUST00000033642|mus_hu|FALSE|FALSE (ssRNA)
RNA: GGGAGUUCUACAGUCCGACGAUCACCUAAAGAUACAUGAGCUAUAAGGAAACUGCUUGUAAAGAUCUGCUGAGGGGGAUUACGAAUGAAAAUGGAGAAGAAGAAAGGGCCAGGAUCAGGUUGAUUCCCACCAACAUACUUCUGCAACAGAGGAUUGAGCAUCA
B8: chr7:44244176:44244177:+_ENSG00000106636_ENST00000223369|hu_mus|hu_hu_hu_mus_False|38_108 (ssRNA)
RNA: GGGAGUUCUACAGUCCGACGAUCACUAUCAUUCCGGACGUAGACAUGGCAAAGAUACUCUUGUUCUUUGACAGAAGCUCUGCUGCCUUUCCCCGAGCGCUCCACAAUCAGUUGACUUGUAAAGGUCAUGAAUUCCUGCACACUCAACAGAGGAUUGAGCAUCA
B9: chr1:109605286:109605287:-_ENSG00000197780_ENST00000461096|hu_mus|hu_hu_hu_mus_True|8_28 (ssRNA)
RNA: GGGAGUUCUACAGUCCGACGAUCAAGUUUCAGAGUAACAUUCAGUAACCUCUUUAAAUGCAAUUAUCCUUAUUAUAAGCUAAGCAGAAUAAUAAUUUAAUACCGUAAGUAAAUACAACACAAAGCCGUGUAUUCAGAAAUGGUCAACAGAGGAUUGAGCAUCA
B10: chr9:95013113:95013114:-_ENSG00000196305_ENST00000443024|hu_hu|hu_hu_hu_mus_False|48_68 (ssRNA)
RNA: GGGAGUUCUACAGUCCGACGAUCCUCAGUCAGAAAGGGCGUGUAAGGGGCCAUCAGUCUGCACAGAGAAAGCAGAACACUGAACAGGGUUUCUAGGGCCAUGACACAGUCUUCCACCCCACUCUCACCCUUUAACCUCCUCCUCAACAGAGGAUUGAGCAUCA
B11: chr4:115894766:115894767:+_ENSMUSG00000028698_ENSMUST00000030464|mus_hu|mus_mus_mus_hu_True|48_58 (ssRNA)
RNA: GGGAGUUCUACAGUCCGACGAUCUUCCACACGGAAAUGUACUUCGGGUUUUCCAACGGCCAGUACCAGUCCGGCCAACUACUAGGAUGAGGACAAGCCCCCUCUCUCCUACAGAACACAACAAAAUGCCCCCGAACUUUCAAGCAACAGAGGAUUGAGCAUCA
B12: chr14:102359341:102359342:+_ENSG00000078304_ENST00000445439|hu_hu|FALSE|FALSE (ssRNA)
RNA: GGGAGUUCUACAGUCCGACGAUCUUUUAGUGGUAAGGCAAAUCCAUUAAUUAUACUUCCCAAUAUUUCCAGUAACUCUGCUAUGCCAUUAUGAUGCUCUGUUUCAUAAAUAAACCUAUAAAAUAUAUUAUUUAUCUGUUUUCUCAACAGAGGAUUGAGCAUCA
B13: chr16:94690093:94690094:+_ENSMUSG00000040785_ENSMUST00000117648|mus_hu|mus_mus_mus_hu_True|1_98 (ssRNA)
RNA: GGGAGUUCUACAGUCCGACGAUCGGGCUGGGAUGACAGCAGACAGCCCUCGAUUCCAGGGGGAAAAAGUCUUAGUCGAUACUAAUUAAAAAGUGUUAAUGAUUUUUGAAAAUCAGAUUACAUCUAUAAAAGAUGAAAGCACUUCAACAGAGGAUUGAGCAUCA
B14: chr19:16212804:16212805:+_ENSG00000167460_ENST00000300933|hu_mus|hu_hu_hu_mus_False|28_38 (ssRNA)
RNA: GGGAGUUCUACAGUCCGACGAUCAACAAUUCUGGAGUGAAGGAAAGAUGUAACAUGGAACAGCAUUAAAGCUCAGUCAGAAGGCACAUGGGCAACAAUGACUAUUUCCCAAGCAUUGCUUGGAAUGCUUAAAGACAAUCUGUUCAACAGAGGAUUGAGCAUCA

Molecular target: T1, UNK ZnF1-3 (human, UniProt Q9C0B0 31-174)
T1 sequence: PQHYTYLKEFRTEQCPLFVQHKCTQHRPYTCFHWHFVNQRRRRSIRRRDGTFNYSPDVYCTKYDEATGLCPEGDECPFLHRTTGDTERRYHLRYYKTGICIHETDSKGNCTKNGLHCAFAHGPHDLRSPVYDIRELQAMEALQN
Experiment: nsRBNS (natural sequence RNA bind-n-seq); RBNS binding buffer (assumed for nsRBNS): 25 mM Tris pH 7.5, 150 mM KCl, 3 mM MgCl2, 0.01% Triton X-100, 500 ug/ml BSA, 20 U/ml SUPERase-In, 4 C; UNK is unkempt and MSI1 is Musashi-1; names of the RNAs are library labels; protein concentration not given here; high values mean tight binding

| Binder | binding signal [enrichment R] |
| --- | --- |
| B1 | 1.03 |
| B2 | 0.965 |
| B3 | 1.01 |
| B4 | 0.757 |
| B5 | 0.623 |
| B6 | 0.583 |
| B7 | 1.8 |
| B8 | 0.779 |
| B9 | 0.927 |
| B10 | 1.07 |
| B11 | 0.976 |
| B12 | 1.27 |
| B13 | 0.906 |
| B14 | 1.12 |

Source: paper PMC12136788
